# Screen size: about 39,000 compounds; about 220 (0.56%) showed activity. Some of the results follow.
# Test system: Escherichia coli K-12 BW25113
# Test: relative growth (OD600 normalised to plate interquartile mean) (fraction); higher = less growth inhibition, active = 0.2 or less
# Conditions: 50 µM; LB; incubation time: overnight (16-24 h)
# 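Also: static incubation at 37 °C against the wild-type strain, values averaged over two biological replicates.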
row,SMILES,relative growth
1,CN1CCN(C(=O)C[C@H]2CC[C@H]3[C@@H](COC[C@H](O)CN3C(=O)C3CCOCC3)O2)CC1,inactive: 1.01
2,Cc1noc(C)c1S(=O)(=O)N(C)C[C@H]1Oc2c(NS(=O)(=O)c3cn(C)cn3)cccc2C(=O)N([C@H](C)CO)C[C@H]1C,inactive: 0.992
3,O=C(Nc1cc(C(F)(F)F)cc(C(F)(F)F)c1)Nc1cnn(-c2ccc([N+](=O)[O-])cc2)c1C(F)(F)F,inactive: 0.964
4,COc1ccc(S(=O)(=O)Nc2ccc3c(c2)C(=O)N([C@H](C)CO)C[C@@H](C)[C@H](CN(C)C(=O)Nc2ccc(F)cc2)OCCCC[C@@H](C)O3)cc1,inactive: 0.991
5,COCCOc1ccc(N2CCN(CCn3ncc4c3nc(N)n3nc(-c5ccco5)nc43)CC2)cc1,inactive: 1.01
6,Nc1nc2nc[nH]c2c(=S)[nH]1,inactive: 0.945
7,C[C@@H]1CN([C@@H](C)CO)C(=O)c2cc(C#CC3CCCCC3)cnc2O[C@@H]1CN(C)C(=O)Cc1ccccn1,inactive: 1
8,CN1CCN(C(=O)C[C@@H]2C=C[C@H](NC(=O)c3ccc4c(c3)OCO4)[C@H](CO)O2)CC1,inactive: 0.998
9,C[C@@H]1CCCCO[C@H](CN(C)Cc2ccc3c(c2)OCO3)[C@H](C)CN([C@H](C)CO)C(=O)c2cc(NS(=O)(=O)c3cccs3)ccc2O1,inactive: 1.01
10,C[C@@H]1CN([C@@H](C)CO)C(=O)c2cc(NC(=O)Nc3cccc4ccccc34)ccc2O[C@@H]1CN(C)S(=O)(=O)c1ccccc1,inactive: 1.04
11,C[C@@H]1CN([C@H](C)CO)C(=O)Cc2cc(NC(=O)C3CC3)ccc2O[C@H]1CN(C)C(=O)Nc1ccc(F)cc1,inactive: 0.982
12,C[C@@H]1CN([C@@H](C)CO)C(=O)c2cccc(NC(=O)c3cnccn3)c2O[C@H]1CN(C)C(=O)NC1CCCCC1,inactive: 0.994
13,Cc1noc(C)c1S(=O)(=O)N(C)C[C@H]1OCCCC[C@H](C)Oc2ccc(NC(=O)Nc3ccc(C(F)(F)F)cc3)cc2C(=O)N([C@H](C)CO)C[C@@H]1C,inactive: 1.01
14,C[C@H](CO)N1C[C@H](C)[C@@H](CN(C)C(=O)Nc2cccc3ccccc23)OCCCC[C@H](C)Oc2ccc(NS(=O)(=O)c3cn(C)cn3)cc2C1=O,inactive: 0.994
15,Cc1nn(-c2nc3c(c(=O)n(CC(N)=O)c(=O)n3C)n2C)c(C)c1C,inactive: 1.02
16,C[C@H]1CN([C@@H](C)CO)C(=O)CCCn2nncc2CO[C@@H]1CN(C)S(=O)(=O)c1cn(C)cn1,inactive: 0.984
17,CCN(CC)C(=O)N1CCN(C)CC1.O=C(O)CC(O)(CC(=O)O)C(=O)O,inactive: 1.1
18,C[C@H](CO)N1C[C@H](C)[C@@H](CN(C)S(=O)(=O)c2ccccc2)Oc2ncc(C#CC3(O)CCCC3)cc2C1=O,inactive: 0.954
19,Nc1ncnc2c1ncn2[C@H]1C[C@H](O)[C@@H](CO)O1,inactive: 0.976
20,C[C@@H]1CN([C@H](C)CO)C(=O)c2cccc(NC(=O)Nc3ccc4c(c3)OCO4)c2O[C@@H]1CN(C)C(=O)Nc1ccc(C(F)(F)F)cc1,inactive: 0.968

row,SMILES,relative growth
1,C[C@@H]1CN([C@H](C)CO)S(=O)(=O)c2ccc(C#CCN(C)C)cc2O[C@@H]1CN(C)S(C)(=O)=O,inactive: 1
2,COCC#Cc1cnc2c(c1)C(=O)N([C@@H](C)CO)C[C@H](C)[C@H](CN(C)C(=O)Nc1ccccc1OC)O2,inactive: 0.986
3,C=C(C)C1=NC(C)(C)C[C@H](C)O1,inactive: 0.934
4,Cc1cc(C(=O)Nc2cccc3c2O[C@H](CN(C)Cc2ccc(Oc4ccccc4)cc2)[C@H](C)CN([C@@H](C)CO)C3=O)n(C)n1,inactive: 1.03
5,COc1ccc(S(=O)(=O)Nc2ccc3c(c2)C(=O)N([C@H](C)CO)C[C@H](C)[C@@H](CN(C)C(=O)C2CCCCC2)OCCCC[C@H](C)O3)cc1,inactive: 1.01
6,CCS(=O)(=O)N1CC[C@]2(CC1)CN([C@H](CO)c1c2c2ccc(cc2n1C)OC)C(=O)Nc1c(noc1C)C,inactive: 0.997
7,Cc1noc(C)c1NC(=O)N(C)C[C@H]1Oc2ccc(NC(=O)NC(C)C)cc2C(=O)N([C@@H](C)CO)C[C@@H]1C,inactive: 0.999
8,C[C@@H]1CN([C@@H](C)CO)C(=O)c2cc(NC(=O)Nc3ccccc3)ccc2O[C@@H](C)CCCCO[C@@H]1CN(C)S(=O)(=O)c1ccc(Cl)cc1,inactive: 1.03
9,C[C@@H]1CN([C@H](C)CO)C(=O)c2cc(NS(=O)(=O)c3ccc(F)cc3)ccc2O[C@@H]1CN(C)Cc1ccc(Oc2ccccc2)cc1,inactive: 0.98
10,COc1ccc(S(=O)(=O)Nc2cccc3c2O[C@@H](CN(C)S(=O)(=O)c2c(C)noc2C)[C@@H](C)CN([C@H](C)CO)C3=O)cc1,inactive: 1.01
11,C[C@@H]1CN([C@H](C)CO)C(=O)Cc2cc(NC(=O)Nc3cccc4ccccc34)ccc2O[C@H]1CN(C)S(=O)(=O)c1cccs1,inactive: 1.01
12,COc1ccc(NC(=O)Nc2ccc3c(c2)C(=O)N([C@H](C)CO)C[C@@H](C)[C@@H](CN(C)S(=O)(=O)c2ccc(Cl)cc2)OCCCC[C@H](C)O3)cc1,inactive: 1.05
13,C[C@@H]1CN([C@@H](C)CO)C(=O)c2cc(NC(=O)Nc3ccc(F)cc3)ccc2O[C@H]1CN(C)Cc1ccc(Oc2ccccc2)cc1,inactive: 1.03
14,C[C@@H]1CCCCO[C@@H](CN(C)S(=O)(=O)c2ccc(Cl)cc2)[C@H](C)CN([C@H](C)CO)C(=O)c2cc(NC(=O)CCC(F)(F)F)ccc2O1,inactive: 1.01
15,COc1ccc(S(=O)(=O)Nc2ccc3c(c2)C(=O)N([C@H](C)CO)C[C@@H](C)[C@H](CN(C)C(=O)NC(C)C)O3)cc1,inactive: 1.01
16,C[C@@H]1CCCCO[C@H](CN(C)CC2CCCCC2)[C@H](C)CN([C@H](C)CO)C(=O)c2cc(NS(=O)(=O)c3cccs3)ccc2O1,inactive: 1.04
17,C[C@@H]1CCCCO[C@@H](CN(C)C(=O)NC2CCCCC2)[C@@H](C)CN([C@@H](C)CO)C(=O)c2cc(NC(=O)Nc3cccc4ccccc34)ccc2O1,inactive: 1.01
18,COc1ccc(C=CC(=O)c2ccccc2)cc1,inactive: 0.984
19,COc1cccc(C#Cc2ccc([C@@H]3[C@H]4CN(S(=O)(=O)c5ccccc5C)CC(=O)N4[C@H]3CO)cc2)c1,inactive: 1.04
20,CCCC(=O)Nc1ccc2c(c1)C(=O)N(C)[C@H]1CC[C@H](CC(=O)NCCN3CCCCC3)O[C@H]1CO2,inactive: 1.02

row,SMILES,relative growth
1,CNC[C@@H]1Oc2ccc(NS(=O)(=O)c3cn(C)cn3)cc2CC(=O)N([C@@H](C)CO)C[C@H]1C,inactive: 1.02
2,C[C@@](Cc1ccc(O)c(O)c1)(NN)C(=O)O,inactive: 0.903
3,CC(C)NC(=O)N(C)C[C@H]1Oc2c(NC(=O)Cn3cnnn3)cccc2C(=O)N([C@H](C)CO)C[C@@H]1C,inactive: 0.985
4,C[C@@H]1CN([C@@H](C)CO)C(=O)c2cc(NC(=O)Nc3ccc4c(c3)OCO4)ccc2O[C@@H]1CN(C)Cc1ccc(C(=O)Nc2ccccc2N)cc1,inactive: 0.97
5,Cc1noc(C)c1NC(=O)Nc1ccc2c(c1)CC(=O)N([C@H](C)CO)C[C@@H](C)[C@@H](CN(C)Cc1ccc(Cl)c(Cl)c1)O2,inactive: 0.986
6,C[C@@H]1CCCCO[C@@H](CN(C)C(=O)C2CCCCC2)[C@@H](C)CN([C@@H](C)CO)C(=O)c2cc(NC(=O)Nc3ccccc3)ccc2O1,inactive: 0.971
7,C[C@H](CO)N1C[C@H](C)[C@@H](CN(C)C(=O)c2ccccn2)Oc2cc(C#Cc3ccccc3)ccc2S1(=O)=O,inactive: 1.03
8,CCCNC(=O)N1C[C@H](C)[C@H](OC)CN(C)C(=O)c2cc(NS(=O)(=O)CC(F)(F)F)ccc2OC[C@H]1C,inactive: 0.995
9,Cc1ccc(S(=O)(=O)N(C)C[C@H]2OCCCC[C@@H](C)Oc3ccc(NC(=O)Nc4c(C)noc4C)cc3C(=O)N([C@H](C)CO)C[C@H]2C)cc1,inactive: 0.972
10,CC(C)NC(=O)N(C)C[C@@H]1Oc2ccc(NC(=O)Cn3cnnn3)cc2C(=O)N([C@H](C)CO)C[C@@H]1C,inactive: 1
11,COc1cc(C(=O)OCCN2CCN(CCOC(=O)c3cc(OC)c(OC)c(OC)c3)CC2)cc(OC)c1OC,inactive: 1.04
12,C[C@@H]1CCCCO[C@H](CN(C)C(=O)Nc2ccc(F)cc2)[C@H](C)CN([C@@H](C)CO)C(=O)c2cc(NC(=O)Nc3cccc4ccccc34)ccc2O1,inactive: 1.02
13,CC(C)CC#Cc1ccc2c(c1)O[C@@H](CN(C)C(=O)NC1CCCC1)[C@H](C)CN([C@@H](C)CO)S2(=O)=O,inactive: 1.04
14,NC(=S)c1ccc(-n2cncn2)nc1,inactive: 0.99
15,COc1ccccc1S(=O)(=O)N[C@H]1C=C[C@@H](CC(=O)N2CCN(C)CC2)O[C@@H]1CO,inactive: 1.01
16,C[C@@H]1CCCCO[C@@H](CN(C)C(=O)Nc2ccc(F)cc2)[C@H](C)CN([C@H](C)CO)C(=O)c2cc(NC(=O)NC3CCCCC3)ccc2O1,inactive: 0.988
17,O=C(CN1CCOCC1)N[C@H]1CC[C@H](CCNC(=O)C2CCCCC2)O[C@H]1CO,inactive: 1.02
18,C[C@@H]1CCCCO[C@@H](CN(C)Cc2ccc(C(F)(F)F)cc2)[C@H](C)CN([C@H](C)CO)C(=O)c2cc(NC(=O)c3ccccc3)ccc2O1,inactive: 1.03
19,COC(=O)[C@@H]1[C@H](C(=O)O)[C@@]2(C(=O)Nc3ccc(C#Cc4ccc(OC)cc4)cc32)[C@@H](c2ccccc2)N1C,inactive: 0.998

# From the supplement of paper PMC9446081
